From US9693990B2, “Use of rhodamine dyes to reduce alveolar surface tension” (THE TRUSTEES OF THE STEVENS INSTITUTE OF TECHNOLOGY, priority 2011, dated 2017)

Tests used:
[1] = test system: flooded alveoli of the isolated rat lung; experiment: Surface tension in flooded alveoli by the Laplace relation, local alveolar edema model, isolated unperfused rat lung; settings: for Liquid Phase Pressure / Meniscus Radius: ± SD; for effect on meniscus radius and liquid phase pressure: 1 μM RWT or SRB in about 5% BSA flooding solution
[2] = SRB alone; cited from earlier work
rats = settings: diet of 5% of greater than 99% purity SRB over two years; cited from earlier work
mice = settings: one-time 2000 mg/kg, greater than 90% purity SRB; cited from earlier work
mammalian cell [3] = settings: cited from earlier work
cultured fetal rat cells = settings: SRB at 1 to 2 mM, cited from earlier work
mature rats = settings: 1000 mg/kg/day, greater than 99% purity SRB, 13 weeks; cited from earlier work
pregnant rats [4] = settings: 2000 mg/kg SRB to pregnant rats; cited from earlier work
[5] = test system: alveolar-capillary barrier in heterogeneously flooded regions of the isolated, perfused rat lung; experiment: Ventilation injury of the alveolar-capillary barrier (alveolar liquid fluorescence, injury score), isolated perfused rat lung; settings: 5% BSA, 5% fibrinogen or normal saline alone, with or without 1 μM SRB; PEEP 15 cmH2O, tidal volume 6 ml/kg
[6] = only such study; tested SRB concentration not stated; cited from earlier work
[7] = test system: flooded alveoli, local edema model, isolated rat lung; experiment: Ventilation-induced flooded alveolar clearance, local edema model
Description: Darker areas, such as areas 38, indicate aerated alveoli. […] The micrographs and graph of FIGS. 10C and 10D show the results of the same experiment replicated in a global permeability edema model with inclusion of fluorescein (36 μM) or RWT (2 μM) in the perfusate. In all micrographs of FIGS. 10A and 10C, exemplary flooded alveoli are shown as a lighter gray than aerated alveoli.

[8] = cited from earlier work
[9] = 10 μM and 1.7 mM; SRB of unknown purity; cited from earlier work
pregnant rats [10] = settings: 1000 mg/kg/day, greater than 99% purity SRB, 12 days; cited from earlier work
[11] = cited from earlier work; remark: listed apart in the source
[12] = 25-80% of the LD50 over 1-5 days; cited from earlier work
mammalian cell [13] = settings: 4 mM; purity not known; cited from earlier work
[14] = PALV=15 cmH2O, 5% BSA flooding, BCECF 31 μM, fluorescein 31 μM, calcein red-orange AM 19 μM, SRG 0.9 μM
[15] = about 2 μM to about 10 μM, SRB of unknown purity
[16] = alveolar pressure 5 cmH2O, pooled group SRB or RWT added (n = 8)
[17] = alveolar pressure 15 cmH2O, pooled group SRB or RWT added (n = 40)

For CCN=c1cc2oc3cc(NCC)c(C)cc3c(-c3ccc(S(=O)(=O)O)cc3S(=O)(=O)[O-])c-2cc1C.[Na+] [SRG, sulforhodamine G, reference compound], the “effect of dye on surface tension” value [1, 14] was “do not alter surface tension”.

With “calcein red-orange AM [reference compound]” the “effect of dye on surface tension” value [1, 14] was “do not alter surface tension”.

For CCN(CC)c1ccc2c(-c3ccc(S(=O)(=O)O)cc3S(=O)(=O)[O-])c3ccc(=[N+](CC)CC)cc-3oc2c1 [SRB, sulforhodamine B], the “concentration at which SRB on its own is surface active” value [2] is given as “greater than 1.3 mM”, the carcinogenicity (rats) is given as “not carcinogenic” and the “rate of generation of micronuclei” value (mice) is given as “did not increase the rate of generation of micronuclei”. For the same compound, the genotoxicity (mammalian cell [3]; 9 mM, SRB of greater than 99% purity) was “negative”, the genotoxicity (mammalian cell [3]; [15]) was “negative” and the cytotoxicity (cultured fetal rat cells) was “not found to be of cytotoxic concern”. For the same compound, the “cytotoxicity in cultured fetal rat cells” value (cultured fetal rat cells; day four and day seven after plating) was “low level toxicity in cultured fetal rat cells at day four after plating that decreased by day seven”, the adverse effects (mature rats) was “no observable adverse effects” and the “effect on surface tension” value ([1]; 1 nM SRB in 1.8 or 2.7% albumin solution) was “not found to be effective”. For the same compound, the “surface tension of the flooding liquid lowered by” value ([1]; 1 nM to 1 μM SRB, about 5% BSA + 31 μM fluorescein, PALV 15 cmH2O) was “at least 23%”, the “effect on surface tension” value ([1]; 1.8% albumin solution) was “ineffective” and the “effect on surface tension” value ([1]; 2.7% albumin solution, 1 nM SRB, PALV=15 cmH2O) was “lost efficacy”. For the same compound, the “effect on surface tension” value ([1]; 2.7% albumin solution, 1 μM SRB) was “found to lower surface tension”, the “effect on surface tension” value ([1]; 4.6% 70 kD dextran solution, 1 μM SRB, PALV 15 cmH2O) was “loses its efficacy” and the “effect on surface tension” value ([1]; 4.6% fibrinogen solution, 1 μM SRB, PALV 15 cmH2O) was “shows a tendency to lower surface tension, but does not do so significantly”. For the same compound, the “effect on surface tension” value ([1]; 4.6% to 12% albumin solution, 1 nM and 1 μM SRB, PALV=15 cmH2O) was “effectively lowered surface tension”, the “effect on surface tension” value ([1]; SRB 1 nM to 100 nM, both 4.6% albumin solution and rat plasma) was “effectively lower surface tension” and the “effect on surface tension of the flooding liquid” value ([1]; SRB below 1 nM and above 1 μM, about 5% BSA, PALV 15 cmH2O) was “did not significantly lower the surface tension”. The “effect on surface tension” value ([1]; absence of albumin, 1 nM and 1 μM SRB, PALV=15 cmH2O) was “does not lower surface tension”, the “Liquid Phase Pressure” value [1, 16] was 1.6 ± 0.7 cmH2O and the “Meniscus Radius” value [1, 16] was 14.5 ± 3.9 μm. For the same compound, the “effect on meniscus radius and liquid phase pressure” value ([1]; alveolar pressure 15 cmH2O) was “decreased meniscus radius without altering liquid phase pressure”, the “Liquid Phase Pressure” value [1, 17] was 2.0 ± 0.7 cmH2O and the “Meniscus Radius” value [1, 17] was 14.6 ± 1.7 μm. The “DNA damage in cells biopsied from dams or embryos” value (pregnant rats [4]) was “no evidence of DNA damage”, the “injury score with different solutes” value [5] was “albumin is necessary for SRB to lessen injury” and the genotoxicity [6] was “tested positive for genotoxicity”. The “alveolar clearance (expected)” value ([7]; not tested for SRB, inferred from RWT) was “expected to promote alveolar clearance to the same degree as RWT”, the LD50 ([8]; SRB of unknown purity, European Commission committee report 2008) was “exceed 1000 mg/kg” and the genotoxicity [9] was “negative”. The “adverse effects in dams or fetuses” value (pregnant rats [10]) was “no observable adverse effects”, the genotoxicity ([11]; 9 μmol/plate, SRB of greater than 99% purity) was “negative” and the genotoxicity [11, 15] was “negative”.

For “2′,7′-bis-(2-carboxyethyl)-5-(and -6)-carboxyfluorescein [BCECF, reference compound]”, the “effect of dye on surface tension” value ([1]; PALV=5 cmH2O, alveoli flooded with 5% fatty acid-bound BSA in normal saline) was “increased surface tension above control”, the “effect of dye on surface tension” value [1, 14] was “do not alter surface tension” and the “flooded alveolar clearance during ventilation” value ([7]; local edema model, 4% BSA in normal saline with BCECF 25 μM or RWT 0.8 μM) was “do not”.

For CCN(CC)c1ccc2c(-c3ccc(C(=O)[O-])cc3C(=O)[O-])c3ccc(=[N+](CC)CC)cc-3oc2c1.[Cl-].[Na+].[Na+] [RWT, rhodamine WT], the “histopathologic changes, micronuclei generation, sperm abnormalities” value [12] is listed as “did not cause histopathologic changes, increase the rate of micronuclei generation or increase the rate of occurrence of sperm abnormalities”, the genotoxicity (mammalian cell [3]; 12 mM, purity not known) is listed as “negative” and the genotoxicity (mammalian cell [3]; about 2 to about 10 μM, purity not known) is listed as “positive”. For the same compound, the “Liquid Phase Pressure” value [1, 16] was 1.6 ± 0.7 cmH2O, the “Meniscus Radius” value [1, 16] was 14.5 ± 3.9 μm and the “effect on meniscus radius and liquid phase pressure” value ([1]; alveolar pressure 15 cmH2O) was “decreased meniscus radius without altering liquid phase pressure”. For the same compound, the “Liquid Phase Pressure” value [1, 17] was 2.0 ± 0.7 cmH2O, the “Meniscus Radius” value [1, 17] was 14.6 ± 1.7 μm and the LD50 ([8]; dye purity not known) was 430 mg/kg. For the same compound, the genotoxicity (mammalian cell [13]) was “negative” and the genotoxicity ([11]; about 2 to about 10 μM and 4 mM, purity not known) was “positive”.

Where two headings read alike, the source gives them in different places.
